Reference: the supplement of paper PMC12217912
Some of the results follow. Sequences were assembled here from the parent chain. Inactive controls read about 0.05.

B1: TEV protease; numbered along this chain (parent)
chain: MGESLFKGPRDYNPISSSICHLTNESDGHTTSLYGIGFGPFIITNKHLFRRNNGTLVVQSLHGVFKVKDTTTLQQHLVDGRDMIIIRMPKDFPPFPQKLKFREPQREERICLVTTNFQTKSMSSMVSDTSCTFPSGDGIFWKHWIQTKDGQCGSPLVSTRDGFIVGIHSASNFTNTNNYFTSVPKNFMELLTNQEAQQWVSGWRLNADSVLWGGHKVFMVKPEEPFQPVKEATQL

Variants of: B1
Test: raw area under fraction-flipped curve 0-4 h after induction (AUC4h, not background-subtracted), DNA-recorder readout of cleavage of the substrate (dimensionless); higher = more cleavage of the substrate by the protease variant
Details: temperature: 34 °C; time window: 0-4 h after rhamnose induction
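Note: Bxb1 expression induced with 0.2% (w/v) L-rhamnose at OD600 near 0.5, cultures sampled hourly, flipped fraction per protease–substrate barcode pair counted by paired-end Illumina sequencing.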

Variant | area with substrate CNLYFQS | area with substrate DNLYFQS | area with substrate FNLYFQS | area with substrate GNLYFQS | area with substrate HNLYFQS | area with substrate INLYFQS | area with substrate MNLYFQS | area with substrate NNLYFQS | area with substrate PNLYFQS | area with substrate SNLYFQS | area with substrate TNLYFQS | area with substrate VNLYFQS | area with substrate WNLYFQS | area with substrate KNLYFQS | area with substrate LNLYFQS | area with substrate YNLYFQS | area with substrate QNLYFQS | area with substrate RNLYFQS
I167R | 0.0732 | 0.0404 | 0.0468 | 0.0408 | 0.0417 | 0.0476 | 0.0443 | 0.0566 | 0.0528 | 0.055 | 0.0466 | 0.0546 | 0.0479 | – | – | – | – | –
I167V | 0.0648 | 0.0543 | – | 0.0604 | 0.0678 | 0.0747 | – | – | 0.0641 | 0.0581 | 0.0986 | 0.0579 | 0.0419 | 0.0768 | 0.0524 | 0.0591 | – | –
S169D | 0.0491 | 0.0618 | 0.043 | – | 0.0774 | – | 0.0492 | 0.062 | 0.0633 | – | 0.0528 | 0.0667 | 0.0486 | 0.086 | 0.0703 | 0.0483 | – | –
S169I | 0.0564 | 0.0655 | 0.0661 | – | – | 0.0594 | 0.0554 | 0.0674 | 0.0571 | 0.0722 | 0.0609 | – | 0.0626 | 0.0552 | 0.0586 | – | 0.0524 | 0.0448
A170T | 0.0466 | 0.0529 | – | – | 0.0589 | 0.0448 | – | – | – | – | – | – | 0.0382 | – | – | – | 0.0612 | –
A170Y | 0.0588 | 0.0658 | – | 0.0607 | – | 0.0656 | 0.0482 | – | 0.0446 | – | 0.0575 | 0.0736 | 0.057 | 0.0609 | 0.0784 | 0.0647 | – | –
S171C | 0.0735 | 0.0441 | – | 0.0328 | – | – | 0.0465 | 0.0364 | 0.0633 | 0.0388 | 0.0548 | – | 0.0586 | – | – | 0.0652 | 0.062 | 0.0669
S171H | 0.0489 | 0.0671 | 0.058 | 0.0663 | 0.0562 | 0.0683 | 0.0602 | 0.0712 | 0.0279 | 0.0664 | 0.0615 | – | 0.0596 | 0.0887 | – | 0.0658 | 0.0727 | 0.0253
F173E | 0.0581 | 0.127 | 0.0487 | – | 0.06 | 0.0531 | – | – | 0.059 | – | 0.0758 | – | 0.0617 | 0.0709 | – | – | – | –
F173H | 0.0543 | 0.0652 | 0.0646 | 0.0711 | 0.0616 | 0.0659 | 0.0593 | 0.0644 | 0.0599 | 0.0643 | 0.0597 | 0.068 | 0.0612 | 0.0654 | 0.0708 | – | 0.0526 | –
T174K | 0.0659 | 0.0733 | – | – | 0.06 | – | – | – | 0.0517 | – | – | – | 0.0594 | 0.0796 | – | – | – | –
T174S | 0.0715 | 0.106 | – | – | – | – | – | – | 0.0339 | 0.0734 | 0.0822 | – | – | 0.0582 | – | 0 | 0.0609 | –
N175G | 0.0656 | 0.0308 | 0.0576 | – | 0.072 | 0.0569 | – | – | 0.0728 | 0.0564 | – | 0.0535 | 0.065 | – | – | 0.0474 | 0.0393 | –
N175L | 0.0552 | 0.064 | – | 0.0587 | – | 0.0981 | 0.0594 | 0.0584 | 0.059 | 0.0268 | 0.0505 | – | – | – | 0.061 | 0.0719 | – | –
N177C | 0.0926 | 0.125 | 0.0699 | – | 0.113 | – | 0.0989 | – | 0.0904 | – | 0.0856 | 0.0888 | 0.0689 | 0.0837 | 0.0552 | 0.0712 | 0.114 | –
N177I | 0.0974 | 0.152 | – | – | 0.0966 | 0.148 | – | 0.126 | – | 0.0898 | – | – | 0.0698 | 0.0889 | 0.0952 | – | – | –
N177P | 0.0789 | 0.0547 | 0.0627 | 0.0751 | 0.0581 | 0.0564 | 0.0318 | – | – | 0.0589 | 0.0677 | – | 0.0647 | 0.0603 | 0.0679 | 0.0551 | – | –
N178A | 0.0668 | 0.0713 | – | – | – | – | – | – | 0.0622 | – | 0.107 | – | – | 0.0589 | 0.0833 | – | – | –
Y179A | 0.0467 | 0.0604 | – | – | 0.0427 | – | 0.0596 | – | – | – | – | – | 0.0558 | – | – | – | – | –
Y179E | 0.0591 | 0.0878 | – | 0.0636 | 0.0525 | 0.0551 | 0.0484 | – | 0.063 | 0.0584 | – | – | 0.0566 | 0.0523 | 0.0663 | 0.0647 | – | –
Y179R | 0.0318 | 0.057 | 0.0555 | – | 0.0497 | – | – | 0.0617 | 0.0663 | 0.0571 | 0.0611 | – | 0.0728 | 0.139 | 0.0462 | 0.0644 | – | –
Y179S | 0.0519 | 0.0689 | – | 0.0544 | 0.0623 | – | 0.0471 | 0.0563 | 0.0551 | 0.0541 | 0.0644 | 0.0441 | 0.0533 | – | – | – | – | 0.0534
T181F | 0.0555 | 0.0807 | – | 0.0693 | 0.0581 | 0.0685 | 0.0601 | – | 0.0512 | 0.0524 | 0.0732 | – | – | – | 0.0793 | – | – | –
S182R | 0.0609 | 0.0601 | – | 0.0738 | 0.0397 | 0.0418 | 0.0656 | – | 0.0635 | – | – | – | 0.048 | – | 0.0593 | – | – | –
V183A | 0.0598 | 0.0615 | 0.0531 | – | 0.0411 | 0.0463 | 0.0621 | 0.0802 | 0.0723 | – | – | 0.0573 | 0.0646 | 0.0592 | 0.0606 | – | 0.0331 | –
V183D | 0.0403 | 0.0551 | – | 0.0511 | 0.0526 | 0.0474 | 0.0526 | 0.0455 | 0.0618 | 0.0579 | 0.0509 | – | 0.0472 | – | 0.0468 | 0.0459 | – | –
V183P | 0.0401 | 0.0796 | – | 0.0731 | 0.0569 | 0.0348 | 0.0638 | 0.068 | 0.0681 | 0.0577 | 0.0642 | 0.0602 | 0.0571 | 0.0632 | 0.0587 | 0.0455 | 0.0657 | –
V183W | 0.0567 | 0.0765 | 0.0546 | 0.0529 | 0.0607 | 0.0517 | 0.0533 | 0.0587 | 0.0574 | 0.0593 | 0.0572 | – | 0.0695 | 0.0556 | – | 0.0544 | 0.0378 | –
P184F | 0.0465 | 0.055 | 0.0284 | – | 0.0608 | 0.0568 | 0.0554 | 0.0552 | 0.0696 | 0.0952 | 0.056 | 0.0616 | 0.0508 | 0.0449 | – | 0.0494 | – | –
K185C | 0.0758 | 0.109 | 0.0521 | 0.0848 | 0.0664 | 0.0575 | 0.0697 | 0.0687 | 0.085 | 0.0581 | 0.0715 | – | 0.0578 | 0.0492 | 0.0569 | 0.0938 | – | –
